# Laboratory results published in PubChem BioAssay (Tox21).
# “And” between values parts separate entries of the source, which are not always exact repeats. Equal values may be shown once. The shares of active, inactive and inconclusive entries below differ from those in the screen. Potencies of inconclusive entries are doubtful fits and often do not repeat. The source holds several records for some structures; these can differ, active in one and inactive in another. The source made the active and inactive calls. Unless noted, the call rests on the fitted dose curve; in most records, active means well fitted curve in the direction sought with a large enough effect in the repeat runs; inconclusive means weak or mixed curves; inactive means no such curve, though single readings can be large; an effect the other way counts as inactive or inconclusive.
# Columns and labels:
# [1] = biological target: Nuclear receptor subfamily 1 group I member 3 (Homo sapiens) (UniProt Q14994); experiment: qHTS assay to identify small molecule antagonists of the constitutive androstane receptor (CAR) signaling pathway (AID 1224838);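 further: HepG2 cells stably expressing hCAR with CYP2B6 luciferase reporter stimulated by CITCO; nearly all actives have a fitted effect of over 40% in size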
# UniProt Q14994, sequence (Q14994 whole entry, looked up): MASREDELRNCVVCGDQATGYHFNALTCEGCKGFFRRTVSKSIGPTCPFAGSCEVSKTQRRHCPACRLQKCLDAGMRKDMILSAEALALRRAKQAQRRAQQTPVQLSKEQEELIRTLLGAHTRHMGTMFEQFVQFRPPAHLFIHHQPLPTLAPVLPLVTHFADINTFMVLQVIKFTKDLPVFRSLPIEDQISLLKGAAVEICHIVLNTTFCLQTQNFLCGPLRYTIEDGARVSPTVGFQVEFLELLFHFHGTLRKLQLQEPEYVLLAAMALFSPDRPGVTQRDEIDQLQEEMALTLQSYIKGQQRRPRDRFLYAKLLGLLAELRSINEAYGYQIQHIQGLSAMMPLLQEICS
# Summary of the method: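 Cell line: HepG2 double-stable for hCAR and CYP2B6-2.2kb reporter. Agonist: CITCO, 50 nM final. Compounds: 15 concentrations, 24 h, 37 C. Detection: ONE-Glo luminescence.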
# [2] = qHTS assay to identify small molecule antagonists of the estrogen related receptor signaling pathway with the pleiotropic PPARgamma coactivator (PGC) from Tox21 10K library - cell viability counter screen (AID 1224840; active means well fitted cell-killing curve with a large enough effect in the repeat runs, not every such curve was filed as active; inconclusive means weak or mixed curves, or effect the other way; inactive means no such curve, though single readings can be large or run the other way; further: nearly all actives have a fitted effect of over 40% in size)
# Summary of the method: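 Following seeding of 2,000 PGC/ERR cells/well and 6 hours' incubation, test compounds were delivered in DMSO. The plates then sat 17.5 hours at 37 C before a fluorogenic live-cell protease reagent (CellTiter-Fluor) was read after 30 min.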
# [3] = qHTS assay to identify small molecule antagonists of the estrogen related receptor signaling pathway with the pleiotropic PPARgamma coactivator (PGC) from Tox21 10K library (AID 1224841; call rule not given here; further: actives are mostly falling curves and most rising ones were filed inactive; nearly all actives have a fitted effect of over 50% in size)
# Summary of the method: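 qHTS antagonist format: PGC/ERR cells, 2k/well, compound in DMSO by pin transfer after 6 h attachment, 18 h treatment at 37 C, One-Glo luminescence read at 30 min.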
# [4] = biological target: Thyrotropin receptor (Homo sapiens) (UniProt P16473); experiment: qHTS assay to identify small molecule agonists of the thyroid stimulating hormone receptor (TSHR) signaling pathway (AID 1224843; calls by dose curve; further: nearly all actives have a fitted effect of over 45% in size; on activation: on the % scale 0 is the no-effect control and ±100 the full control effect); conditions: TSHR-HEK293 cells, cAMP HTRF, agonist mode, 30 min; activation: at 92.4 µM (top of the series) unless noted
# UniProt P16473, sequence (P16473 whole entry, looked up): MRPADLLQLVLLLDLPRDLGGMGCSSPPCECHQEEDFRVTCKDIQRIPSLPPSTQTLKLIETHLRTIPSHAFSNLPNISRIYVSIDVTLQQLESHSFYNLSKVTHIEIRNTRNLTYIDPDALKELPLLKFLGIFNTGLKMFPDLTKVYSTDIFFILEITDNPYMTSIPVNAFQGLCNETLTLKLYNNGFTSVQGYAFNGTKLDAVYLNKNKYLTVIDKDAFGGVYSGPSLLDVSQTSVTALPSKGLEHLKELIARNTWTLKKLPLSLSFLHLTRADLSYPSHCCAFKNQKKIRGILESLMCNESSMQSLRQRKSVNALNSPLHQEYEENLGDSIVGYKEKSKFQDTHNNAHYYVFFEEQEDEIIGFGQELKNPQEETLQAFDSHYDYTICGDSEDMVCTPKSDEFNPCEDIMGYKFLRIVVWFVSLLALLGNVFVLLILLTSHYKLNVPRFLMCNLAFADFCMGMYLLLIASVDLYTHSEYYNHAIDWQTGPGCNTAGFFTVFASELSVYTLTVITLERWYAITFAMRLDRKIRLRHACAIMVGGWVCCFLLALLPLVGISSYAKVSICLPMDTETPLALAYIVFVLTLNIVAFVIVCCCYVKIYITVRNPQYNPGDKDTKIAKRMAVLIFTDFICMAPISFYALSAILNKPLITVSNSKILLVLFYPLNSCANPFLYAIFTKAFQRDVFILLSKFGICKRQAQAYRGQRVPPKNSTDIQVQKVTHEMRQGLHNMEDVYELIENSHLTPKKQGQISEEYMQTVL
# Summary of the method: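 Screening of the Tox21 10K collection used HEK293 cells engineered with TSHR at 800 cells per well. After a 30-min room-temperature compound exposure, HTRF cAMP reagents were added and fluorescence recorded 1 h later.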
# [5] = qHTS assay to identify small molecule agonists of H2AX (AID 1224845; active means well fitted activation curve with a large enough effect in the signal ratio in the repeat runs, not every such curve was filed as active; inconclusive means weak or mixed curves; the % refers to the signal ratio; on activation (H2AX phosphorylation): on the % scale 0 is the no-effect control and ±100 the full control effect); conditions: CHO-K1 phospho-H2AX Ser139 HTRF, 3 h; activation (H2AX phosphorylation): at 154 µM (top of the series) unless noted
# Summary of the method: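 Phospho-H2AX Ser139 measured by HTRF (ex 320 nm; em 665 and 620 nm) after 24 hr antibody incubation. Compounds, 15 concentrations, 0.76% DMSO, were applied to CHO-K1 cells for 3hr at 37C before lysis.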
# [6] = qHTS assay to identify small molecule agonists of H2AX - cell viability counter screen (AID 1224847; calls by dose curve; further: nearly all actives have a fitted effect of over 30% in size)
# Summary of the method: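 We seed wild-type CHO-K1 cells overnight, treat them for 3 hr at 37C with compounds in 15-concentration series, and quantify remaining viability by CellTiter-Glo luminescence.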
# [7] = biological target: Nuclear receptor subfamily 1 group I member 3 (Homo sapiens) (UniProt Q14994); experiment: qHTS assay to identify small molecule agonists of the constitutive androstane receptor (CAR) signaling pathway (AID 1224839); further: nearly all actives have a fitted effect of over 15% in size; on activation: on the % scale 0 is the no-effect control and ±100 the full control effect
# Summary of the method: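 A 15-concentration quantitative screen uses HepG2 cells co-transfected stably with human CAR and CYP2B6-2.2kb reporter. Treatment lasts 24 h with 0.75 uM PK11195 final present; ONE-Glo luminescence is the signal.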
# [8] = qHTS assay to identify small molecule agonists of the hypoxia (HIF-1) signaling pathway (AID 1224846; active means well fitted activation curve with a large enough effect in the signal ratio in the repeat runs, not every such curve was filed as active; inconclusive means weak or mixed curves; the % refers to the signal ratio); conditions: HRE-bla ME-180 cells, beta-lactamase ratio, 17 h; activation: at 76.8 µM (top of the series) unless noted
# Summary of the method: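 A low-serum medium (0.5% dialyzed FBS) holding 2,000 HRE-bla ME-180 cells per well is preincubated for 5 hrs, dosed with compounds by pintool, and kept a further 17 hrs at 37C, 5% CO2 before CCF4-AM FRET detection of beta-lactamase.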
# [9] = qHTS assay to identify small molecule agonists of the hypoxia (HIF-1) signaling pathway - cell viability counter screen (AID 1224844; calls by dose curve; further: nearly all actives have a fitted effect of over 50% in size)
# Summary of the method: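 Cells (HRE-bla ME-180, 2,000 per well) sat 5 hrs at 37C, got compound for 17 hrs, were read for CCF4-AM FRET, and were finally lysed with CellTiter-Glo for a 30 min room-temperature luminescence read.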
# [10] = qHTS assay to identify small molecule agonists of the estrogen related receptor signaling pathway with the pleiotropic PPARgamma coactivator (PGC) from Tox21 10K library (AID 1224842); further: nearly all actives have a fitted effect of over 15% in size
# Summary of the method: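 Luminescence from One-Glo (30 min, room temperature) measured after PGC/ERR cells had 18 h at 37 C with pinned compound (23 nL in DMSO). Cells had been seeded at 2,000 per well and pre-incubated 6 h.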
# Potency means the concentration at half of the fitted maximal effect; tags describe the fitted curve by direction and shape or compound fluorescence and quenching.
smiles,measurement,setting,value
O=[N+]([O-])c1ccccc1CCl,Potency,[1],inactive
O=C(N[C@H](c1ccccc1)[C@@H]1CN2CCC1CC2)c1c(Cl)ccc(C(F)(F)F)c1Cl,Potency,[1],active: 13.9 µM
same,Potency,[2],"inconclusive: 55.3 µM [cytotoxic, partial curve]"
same,Potency,[3],active: 31.1 µM
same,Potency,[4],"inconclusive: 12.4 µM [inhibitor, partial curve, poor fit]"
same,Potency,[5],"inconclusive: 182 µM [activator, single point]"
same,Potency,[6],active: 182 µM
N#Cc1cc(I)c(O)c(I)c1,Potency,[1],active: 61.1 µM
same,Potency,[2],"inconclusive: 48.6 µM [cytotoxic, partial curve]"
same,Potency,[5],inactive
same,Potency,[6],active: 28.4 µM
COP(=S)(OC)SCn1nnc2ccccc2c1=O,Potency,[1],"inconclusive: 77 µM [inhibitor, single point]"
same,Potency,[7],"inconclusive: 47.6 µM [activator, partial curve, poor fit] and inconclusive: 38.6 µM [activator, partial curve]"
same,Potency,[2],"inconclusive: 68.6 µM [cytotoxic, single point]"
same,Potency,[3],"inconclusive: 67.3 µM [falling, single point]"
CC(=O)C=C(C)C,Potency,[1],inconclusive: 28.6 µM [inhibitor]
O=P1(N(CCCl)CCCl)NCCCO1 (stereo not drawn),Potency,[1],inactive
same,Potency,[3],"inconclusive: 19.6 µM [falling, partial curve]"
CC(C)OS(C)(=O)=O,Potency,[1],inactive
CCCCCCCCCCCC[N+](C)(C)CCOc1ccccc1,Potency,[1],"inconclusive: 68.6 µM [inhibitor, single point]"
same,Potency,[2],active: 61.1 µM and active: 29.8 µM
same,Potency,[4],active: 48.6 µM
same,Potency,[5],"inconclusive: 113 µM [inhibitor, partial curve, poor fit] and inconclusive: 61.9 µM [activator, single point]"
CC(C)(C)OOC(C)(C)CCC(C)(C)OOC(C)(C)C,Potency,[1],inactive
CC(C)(C)OOC(C)(C)C,Potency,[1],"inconclusive: 28.2 µM [inhibitor, partial curve]"
CCOC(=S)S,Potency,[1],active: 24.3 µM and active: 36.6 µM
same,Potency,[2],"inconclusive: 54.5 µM [cytotoxic, partial curve] and inconclusive: 58 µM [cytotoxic]"
same,Potency,[3],"inconclusive: 23.1 µM [falling, partial curve, poor fit]"
same,Potency,[5],active: 28.4 µM
same,Potency,[6],"inconclusive: 56.6 µM [cytotoxic, partial curve] and inconclusive: 95.5 µM [cytotoxic, partial curve, poor fit]"
CCCC[N+]1(C)[C@@H]2CC(OC(=O)[C@H](CO)c3ccccc3)C[C@H]1[C@@H]1O[C@@H]12 (stereo partly drawn),Potency,[1],"inconclusive: 2.98 µM [inhibitor, single point]"
Oc1cc(Cl)c(Cl)c(Cl)c1Cl,Potency,[1],"inconclusive: 75.2 µM [inhibitor, single point]"
same,Potency,[7],"inconclusive: 23.8 µM [activator, partial curve, poor fit]"
same,Potency,[2],"inconclusive: 53.2 µM [cytotoxic, partial curve]"
same,Potency,[8],"inconclusive: 26.9 µM [falling, partial curve]"
N#Cc1nn(-c2c(Cl)cc(C(F)(F)F)cc2Cl)c(N)c1S(=O)C(F)(F)F (stereo not drawn),Potency,[1],"inconclusive: 69 µM [inhibitor, single point]"
same,Potency,[7],"inconclusive: 33.5 µM [activator, partial curve, poor fit]"
same,Potency,[2],"inconclusive: 30.8 µM [cytotoxic, partial curve] and inactive"
same,Potency,[3],active: 7.74 µM and active: 21.1 µM
same,activation,[4],inconclusive: -14.9%
same,Potency,[6],"active: 101 µM and inconclusive: 24.7 µM [cytotoxic, partial curve]"
C[C@]12CCC(=O)C=C1CC[C@@H]1[C@@H]2CC[C@@]2(C)[C@H]1CC[C@]2(C)O,Potency,[1],"inconclusive: 13.8 µM [inhibitor, full curve]"
same,Potency,[7],inactive
same,Potency,[5],"inconclusive: 36 µM [fluorescent, single point] and inconclusive: 55.2 µM [activator, single point]"
O=C1CCCO1,Potency,[1],"inconclusive: 27.3 µM [inhibitor, single point]"
COc1ccc(Cc2nccc3cc(OC)c(OC)cc23)cc1OC,Potency,[1],inactive
same,Potency,[7],active: 15 µM
same,Potency,[4],active: 9.44 µM
same,Potency,[9],inactive
C[CH2][Hg][N]1C(=O)C2C(C1=O)C1(Cl)C(Cl)=C(Cl)C2(Cl)C1(Cl)Cl (stereo not drawn),Potency,[1],active: 11.6 µM
same,Potency,[3],"inconclusive: 14.6 µM [falling, single point]"
same,Potency,[10],inconclusive: 5.8 µM [activator]
same,Potency,[5],active: 10.7 µM
same,Potency,[8],inconclusive: 2.61 µM [full curve]
C=CC[C@]1(O)CC[C@H]2[C@@H]3CCC4=CC(=O)CCC4=C3C=C[C@@]21C,Potency,[1],"inconclusive: 37.6 µM [inhibitor, single point]"
same,Potency,[7],"inconclusive: 13.3 µM [activator, single point]"
same,Potency,[3],"inconclusive: 26.6 µM [falling, partial curve, poor fit]"
same,Potency,[4],"inconclusive: 29.8 µM [falling, partial curve, poor fit]"
same,Potency,[9],"inconclusive: 26.8 µM [cytotoxic, single point]"
same,Potency,[5],"inconclusive: 4.92 µM [falling, full curve]"
same,Potency,[8],inconclusive: 26.8 µM
same,Potency,[6],active: 39.1 µM
CCOP(=O)(SC(C)CC)N1CCSC1=O (stereo not drawn),Potency,[1],"inconclusive: 43.3 µM [inhibitor, partial curve, poor fit]"
CCOC(=O)C1OC1(C)c1ccccc1 (stereo not drawn),Potency,[1],"inconclusive: 61.6 µM [inhibitor, single point]"
same,Potency,[7],"inconclusive: 69.1 µM [activator, partial curve, poor fit]"
CC1CC(CC2CCC(N)C(C)C2)CCC1N (stereo not drawn),Potency,[1],inconclusive: 69.7 µM [inhibitor]
same,Potency,[7],inactive
same,Potency,[2],"inconclusive: 62.1 µM [cytotoxic, partial curve]"
CO[C@@H]1[C@H](OC(=O)NC(=O)CCl)CC[C@]2(CO2)[C@H]1[C@@]1(C)O[C@@H]1CC=C(C)C,Potency,[1],"inconclusive: 0.106 µM [inhibitor, full curve]"
same,Potency,[3],"inconclusive: 29.8 µM [falling, partial curve, poor fit]"
same,Potency,[9],"inconclusive: 5.99 µM [cytotoxic, partial curve]"
Cc1ccc(-c2c(Cl)nc(C#N)n2S(=O)(=O)N(C)C)cc1,Potency,[1],inconclusive: 68.5 µM [inhibitor]
same,Potency,[2],active: 61.1 µM
same,Potency,[9],"inconclusive: 61.6 µM [rising, single point]"
COc1cc(C=O)cc2c1[C@H](COC(N)=O)[C@]1(OC(C)=O)ON2C[C@H]2[C@@H]1N2C(C)=O,Potency,[1],active: 0.0486 µM
same,Potency,[2],inactive
same,Potency,[5],active: 63.5 µM
same,Potency,[8],inconclusive: 13.8 µM
O=S(=O)(O)C(F)(F)C(F)(F)C(F)(F)C(F)(F)F,Potency,[1],"inconclusive: 64.8 µM [inhibitor, partial curve, poor fit]"
same,Potency,[3],"inconclusive: 81.6 µM [phenotype inactive, single point]"
same,activation,[4],inconclusive: 7.58%
same,Potency,[6],"inconclusive: 1.9 µM [cytotoxic, single point]"
[Cl][Sb]([Cl])[Cl],Potency,[1],inactive
same,Potency,[2],"inconclusive: 17.2 µM [cytotoxic, full curve]"
same,Potency,[9],"inconclusive: 13.8 µM [rising, partial curve]"
same,Potency,[5],"inconclusive: 50.5 µM [rising, single point]"
same,Potency,[8],inconclusive: 49 µM
CS/C(C)=N/OC(=O)N(C)SN(C)C(=O)O/N=C(\C)SC,Potency,[1],"inconclusive: 68.6 µM [inhibitor, single point]"
same,Potency,[2],"inconclusive: 61.1 µM [cytotoxic, single point]"
same,Potency,[3],"inconclusive: 77 µM [falling, single point]"
same,Potency,[4],inconclusive: 68.6 µM [inhibitor]
same,Potency,[9],"inconclusive: 54.9 µM [cytotoxic, single point]"
same,Potency,[6],"inconclusive: 127 µM [cytotoxic, single point]"
C=CCCl,Potency,[1],inactive
O=S(=O)(C(Cl)(Cl)Cl)C(Cl)(Cl)Cl,Potency,[1],active: 24.3 µM
same,Potency,[3],inconclusive: 68.6 µM
same,activation,[4],inconclusive: -27%
same,Potency,[9],active: 12.3 µM
same,activation (H2AX phosphorylation),[5],inconclusive: -0.679%
same,Potency,[8],"inconclusive: 24.5 µM [falling, partial curve]"
same,Potency,[6],active: 89.8 µM
CC1COC2(c3ccccc3Cl)c3cc(Cl)ccc3NC(=O)CN12 (stereo not drawn),Potency,[1],"inconclusive: 1.88 µM [inhibitor, full curve]"
same,Potency,[3],active: 21.1 µM
N#CSCc1ccccc1,Potency,[1],"inconclusive: 68.9 µM [inhibitor, single point]"
same,Potency,[2],"inconclusive: 68.9 µM [cytotoxic, partial curve, poor fit]"
Cc1cc(C(F)(C(F)(F)F)C(F)(F)F)ccc1NC(=O)c1cccc(I)c1C(=O)NC(C)(C)CS(C)(=O)=O,Potency,[1],"inconclusive: 10.9 µM [inhibitor, full curve, poor fit]"
same,Potency,[3],"inconclusive: 38.8 µM [falling, partial curve]"
same,Potency,[9],"inconclusive: 31.1 µM [cytotoxic, partial curve]"
Clc1ccc(CSC(Cn2ccnc2)c2ccc(Cl)cc2Cl)cc1 (stereo not drawn),Potency,[1],"inconclusive: 33.5 µM [inhibitor, single point]"
same,Potency,[7],"inconclusive: 26.6 µM [activator, partial curve]"
same,Potency,[9],"inconclusive: 30.1 µM [cytotoxic, single point]"
same,Potency,[5],"inconclusive: 4.92 µM [rising, full curve]"
same,Potency,[8],inconclusive: 23.9 µM [partial curve]
